Data as given in PMC12275093.
No constants are given. Whether binding was seen depends on the method and setting. In cells and extracts the contact can be indirect. Some binding calls cover weakened binding; strength is not graded here. For some of these results: Sequences can lack the tags named with a protein.

Key:
[1] = target: T1, PABPN1 fused at its C-terminus to split Venus (Myc-PABPN1-VN173 and Flag-PABPN1-VC155), Q86U42; test: split reporter; Venus BiFC (VN173 and VC155 at the C-terminus of PABPN1) in HEK293T cells, 24 h after transfection, fixed, confocal microscopy; details: remark: other sources report otherwise
T1 chain: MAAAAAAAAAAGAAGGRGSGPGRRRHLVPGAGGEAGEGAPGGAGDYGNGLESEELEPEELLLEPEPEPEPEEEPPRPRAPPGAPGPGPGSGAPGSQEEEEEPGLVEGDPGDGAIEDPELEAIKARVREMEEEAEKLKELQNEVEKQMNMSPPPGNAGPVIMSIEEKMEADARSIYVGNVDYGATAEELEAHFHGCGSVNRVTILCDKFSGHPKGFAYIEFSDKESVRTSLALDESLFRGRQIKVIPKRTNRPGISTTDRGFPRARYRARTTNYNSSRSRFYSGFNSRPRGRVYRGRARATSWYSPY

[2] = target: T2, endogenous PABPN1 (human (endogenous in HEK293T)) (UniProt Q86U42); test: co-IP; anti-PABPN1 IP from lysate of HEK293T cells transfected with Myc-QKI-6 or Flag-DsRed-tagged QKI-6 fragments; blot for the tagged QKI
T2 sequence: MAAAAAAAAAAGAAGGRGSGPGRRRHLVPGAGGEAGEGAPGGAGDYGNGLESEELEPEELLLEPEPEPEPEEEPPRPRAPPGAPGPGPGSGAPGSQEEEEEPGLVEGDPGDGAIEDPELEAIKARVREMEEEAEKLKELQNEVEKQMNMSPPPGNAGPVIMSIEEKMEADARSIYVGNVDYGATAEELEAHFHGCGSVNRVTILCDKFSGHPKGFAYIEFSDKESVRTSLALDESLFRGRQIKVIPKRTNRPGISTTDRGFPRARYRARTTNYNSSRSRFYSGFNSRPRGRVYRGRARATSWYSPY

[3] = target: T2, endogenous PABPN1 (human (endogenous in HEK293T)); test: co-IP; Myc-QKI-6-G118R and PABPN1 (Fig. 3H); antibody of the IP and cell line not stated
[4] = target: T3, Myc-PABPN1-WT (UniProt Q86U42); test: co-IP; anti-Myc IP from lysate of HEK293T cells overexpressing Myc-PABPN1-WT or Myc-PABPN1-AP; blot for endogenous QKI
T3 sequence: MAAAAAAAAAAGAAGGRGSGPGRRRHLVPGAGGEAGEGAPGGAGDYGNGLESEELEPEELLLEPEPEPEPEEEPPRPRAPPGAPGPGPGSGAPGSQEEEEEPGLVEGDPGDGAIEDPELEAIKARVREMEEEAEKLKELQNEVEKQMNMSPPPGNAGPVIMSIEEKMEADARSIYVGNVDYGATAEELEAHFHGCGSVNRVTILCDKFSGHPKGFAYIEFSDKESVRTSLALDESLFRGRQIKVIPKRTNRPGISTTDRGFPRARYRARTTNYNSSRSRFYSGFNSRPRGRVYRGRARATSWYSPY

[5] = target: T2, endogenous PABPN1 (human (endogenous in HEK293T)); test: co-IP; IP of endogenous PABPN1, blot for endogenous QKI; with and without RNase treatment; cell line not stated
[6] = target: T4, Myc-QKI-7 (UniProt Q96PU8); test: co-IP; anti-Myc IP from lysate of HEK293T cells overexpressing Myc-tagged QKI isoforms; blot for endogenous PABPN1
T4 sequence: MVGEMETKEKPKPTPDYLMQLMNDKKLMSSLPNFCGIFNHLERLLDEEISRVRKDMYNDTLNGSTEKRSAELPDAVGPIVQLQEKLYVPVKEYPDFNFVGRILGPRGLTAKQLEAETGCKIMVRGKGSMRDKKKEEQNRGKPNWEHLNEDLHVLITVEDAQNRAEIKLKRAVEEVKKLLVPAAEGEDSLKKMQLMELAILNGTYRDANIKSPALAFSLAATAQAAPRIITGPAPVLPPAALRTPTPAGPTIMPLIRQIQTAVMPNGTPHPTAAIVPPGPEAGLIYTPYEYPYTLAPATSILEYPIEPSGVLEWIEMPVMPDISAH

[7] = target: T5, Myc-QKI-6 (UniProt Q96PU8); test: as above
T5 sequence: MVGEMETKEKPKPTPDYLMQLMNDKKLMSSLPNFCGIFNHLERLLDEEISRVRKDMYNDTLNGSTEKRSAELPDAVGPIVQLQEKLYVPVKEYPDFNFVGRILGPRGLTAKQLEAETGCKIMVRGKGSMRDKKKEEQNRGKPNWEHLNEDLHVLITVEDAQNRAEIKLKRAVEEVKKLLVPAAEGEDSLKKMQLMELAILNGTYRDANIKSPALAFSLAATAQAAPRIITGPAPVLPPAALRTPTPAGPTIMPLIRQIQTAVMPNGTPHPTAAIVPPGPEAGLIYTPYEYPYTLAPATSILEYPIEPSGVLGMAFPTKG

[8] = target: T6, Myc-QKI-5 (UniProt Q96PU8); test: as above
T6 sequence: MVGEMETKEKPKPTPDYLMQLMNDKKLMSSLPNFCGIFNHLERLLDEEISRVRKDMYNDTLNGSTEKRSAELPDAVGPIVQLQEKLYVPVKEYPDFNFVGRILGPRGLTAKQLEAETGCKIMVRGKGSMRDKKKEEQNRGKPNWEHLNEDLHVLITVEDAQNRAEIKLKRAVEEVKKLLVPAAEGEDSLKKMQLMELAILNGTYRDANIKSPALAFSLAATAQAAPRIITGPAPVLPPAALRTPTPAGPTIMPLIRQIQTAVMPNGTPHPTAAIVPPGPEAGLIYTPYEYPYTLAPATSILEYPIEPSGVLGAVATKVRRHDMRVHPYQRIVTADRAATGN

B1: PABPN1 fused at its C-terminus to split Venus (Myc-PABPN1-VN173 and Flag-PABPN1-VC155), Q86U42 1-306 (protein)
chain: MAAAAAAAAAAGAAGGRGSGPGRRRHLVPGAGGEAGEGAPGGAGDYGNGLESEELEPEELLLEPEPEPEPEEEPPRPRAPPGAPGPGPGSGAPGSQEEEEEPGLVEGDPGDGAIEDPELEAIKARVREMEEEAEKLKELQNEVEKQMNMSPPPGNAGPVIMSIEEKMEADARSIYVGNVDYGATAEELEAHFHGCGSVNRVTILCDKFSGHPKGFAYIEFSDKESVRTSLALDESLFRGRQIKVIPKRTNRPGISTTDRGFPRARYRARTTNYNSSRSRFYSGFNSRPRGRVYRGRARATSWYSPY
[1]
  binding: binds

B2: Flag-DsRed-QKI-6 ΔC&PY-rich (domain or fragment, UniProt Q96PU8-9 1-205)
chain: MVGEMETKEKPKPTPDYLMQLMNDKKLMSSLPNFCGIFNHLERLLDEEISRVRKDMYNDTLNGSTEKRSAELPDAVGPIVQLQEKLYVPVKEYPDFNFVGRILGPRGLTAKQLEAETGCKIMVRGKGSMRDKKKEEQNRGKPNWEHLNEDLHVLITVEDAQNRAEIKLKRAVEEVKKLLVPAAEGEDSLKKMQLMELAILNGTYR
[2]
  binding: binds

B3: Myc-QKI-6-G118R (protein, UniProt Q96PU8-9 1-319)
chain: MVGEMETKEKPKPTPDYLMQLMNDKKLMSSLPNFCGIFNHLERLLDEEISRVRKDMYNDTLNGSTEKRSAELPDAVGPIVQLQEKLYVPVKEYPDFNFVGRILGPRGLTAKQLEAETRCKIMVRGKGSMRDKKKEEQNRGKPNWEHLNEDLHVLITVEDAQNRAEIKLKRAVEEVKKLLVPAAEGEDSLKKMQLMELAILNGTYRDANIKSPALAFSLAATAQAAPRIITGPAPVLPPAALRTPTPAGPTIMPLIRQIQTAVMPNGTPHPTAAIVPPGPEAGLIYTPYEYPYTLAPATSILEYPIEPSGVLGMAFPTKG
[3]
  binding: binds weakly

B4: endogenous QKI (protein, UniProt Q96PU8 1-341)
chain: MVGEMETKEKPKPTPDYLMQLMNDKKLMSSLPNFCGIFNHLERLLDEEISRVRKDMYNDTLNGSTEKRSAELPDAVGPIVQLQEKLYVPVKEYPDFNFVGRILGPRGLTAKQLEAETGCKIMVRGKGSMRDKKKEEQNRGKPNWEHLNEDLHVLITVEDAQNRAEIKLKRAVEEVKKLLVPAAEGEDSLKKMQLMELAILNGTYRDANIKSPALAFSLAATAQAAPRIITGPAPVLPPAALRTPTPAGPTIMPLIRQIQTAVMPNGTPHPTAAIVPPGPEAGLIYTPYEYPYTLAPATSILEYPIEPSGVLGAVATKVRRHDMRVHPYQRIVTADRAATGN
[4]
  binding: binds
[5]
  binding: binds

B5: endogenous PABPN1 (protein, UniProt Q86U42 1-306)
chain: MAAAAAAAAAAGAAGGRGSGPGRRRHLVPGAGGEAGEGAPGGAGDYGNGLESEELEPEELLLEPEPEPEPEEEPPRPRAPPGAPGPGPGSGAPGSQEEEEEPGLVEGDPGDGAIEDPELEAIKARVREMEEEAEKLKELQNEVEKQMNMSPPPGNAGPVIMSIEEKMEADARSIYVGNVDYGATAEELEAHFHGCGSVNRVTILCDKFSGHPKGFAYIEFSDKESVRTSLALDESLFRGRQIKVIPKRTNRPGISTTDRGFPRARYRARTTNYNSSRSRFYSGFNSRPRGRVYRGRARATSWYSPY
[6]
  binding: binds
[7]
  binding: binds
[8]
  binding: binds

B6: Myc-QKI-6 (protein, UniProt Q96PU8-9 1-319)
chain: MVGEMETKEKPKPTPDYLMQLMNDKKLMSSLPNFCGIFNHLERLLDEEISRVRKDMYNDTLNGSTEKRSAELPDAVGPIVQLQEKLYVPVKEYPDFNFVGRILGPRGLTAKQLEAETGCKIMVRGKGSMRDKKKEEQNRGKPNWEHLNEDLHVLITVEDAQNRAEIKLKRAVEEVKKLLVPAAEGEDSLKKMQLMELAILNGTYRDANIKSPALAFSLAATAQAAPRIITGPAPVLPPAALRTPTPAGPTIMPLIRQIQTAVMPNGTPHPTAAIVPPGPEAGLIYTPYEYPYTLAPATSILEYPIEPSGVLGMAFPTKG
[2]
  binding: binds

B7: Flag-DsRed-QKI-6 ΔC (domain or fragment, UniProt Q96PU8-9 1-311)
chain: MVGEMETKEKPKPTPDYLMQLMNDKKLMSSLPNFCGIFNHLERLLDEEISRVRKDMYNDTLNGSTEKRSAELPDAVGPIVQLQEKLYVPVKEYPDFNFVGRILGPRGLTAKQLEAETGCKIMVRGKGSMRDKKKEEQNRGKPNWEHLNEDLHVLITVEDAQNRAEIKLKRAVEEVKKLLVPAAEGEDSLKKMQLMELAILNGTYRDANIKSPALAFSLAATAQAAPRIITGPAPVLPPAALRTPTPAGPTIMPLIRQIQTAVMPNGTPHPTAAIVPPGPEAGLIYTPYEYPYTLAPATSILEYPIEPSGVL
[2]
  binding: binds

B8: Flag-DsRed-QKI-6 ΔC&QUA1 (domain or fragment, UniProt Q96PU8-9 82-311)
chain: LQEKLYVPVKEYPDFNFVGRILGPRGLTAKQLEAETGCKIMVRGKGSMRDKKKEEQNRGKPNWEHLNEDLHVLITVEDAQNRAEIKLKRAVEEVKKLLVPAAEGEDSLKKMQLMELAILNGTYRDANIKSPALAFSLAATAQAAPRIITGPAPVLPPAALRTPTPAGPTIMPLIRQIQTAVMPNGTPHPTAAIVPPGPEAGLIYTPYEYPYTLAPATSILEYPIEPSGVL
[2]
  binding: binds

B9: Flag-DsRed-QKI-6 ΔC&QUA2 (domain or fragment, UniProt Q96PU8-9)
chain: MVGEMETKEKPKPTPDYLMQLMNDKKLMSSLPNFCGIFNHLERLLDEEISRVRKDMYNDTLNGSTEKRSAELPDAVGPIVQLQEKLYVPVKEYPDFNFVGRILGPRGLTAKQLEAETGCKIMVRGKGSMRDKKKEEQNRGKPNWEHLNEDLHVLITVEDAQNRAEIKLKRAVEEVKKLLVPDANIKSPALAFSLAATAQAAPRIITGPAPVLPPAALRTPTPAGPTIMPLIRQIQTAVMPNGTPHPTAAIVPPGPEAGLIYTPYEYPYTLAPATSILEYPIEPSGVL
[2]
  binding: binds

B10: Flag-DsRed-QKI-6 ΔC&KH (domain or fragment, UniProt Q96PU8-9)
chain: MVGEMETKEKPKPTPDYLMQLMNDKKLMSSLPNFCGIFNHLERLLDEEISRVRKDMYNDTLNGSTEKRSAELPDAVGPIVQAAEGEDSLKKMQLMELAILNGTYRDANIKSPALAFSLAATAQAAPRIITGPAPVLPPAALRTPTPAGPTIMPLIRQIQTAVMPNGTPHPTAAIVPPGPEAGLIYTPYEYPYTLAPATSILEYPIEPSGVL
[2]
  binding: no binding
